Laboratory results published in ChEMBL document CHEMBL4888484, “Replenishing the malaria drug discovery pipeline: Screening and hit evaluation of the MMV Hit Generation Library 1 (HGL1) against asexual blood stage Plasmodium falciparum ,using a nano luciferase reporter read-out” (2022).
Screen size: about 150,000 compounds; about 540 (0.36%) showed an effect of 50% or more. The list shows a part of the results.

The compounds below were run on Plasmodium falciparum (assay: Primary screen in NF54 nanoGlo assay, in single point, at 2uM, 72h; a lower Z score goes with more inhibition). Conditions: timepoint 72 hour.
Format: functional, Erythrocyte
In the case of `CCC1CCC2(CC1)Nc1ccccc1-c1nc3ccccc3n12` (configuration not stated), the “% Inhibition” value is reported as 0% and the Z score is reported as -0.05. For `COc1ccccc1CNC(=O)CN1CCC[C@H]1C(=O)N1CCOCC1`, the “% Inhibition” value was -12% and the Z score was 1.56. With `Cn1ncc2c(N[C@H]3CCN(CCCc4ccccc4)C3=O)ccnc21` the “% Inhibition” value was -1% and the Z score was 0.28. With `O=C(NCCS(=O)(=O)NCc1ccoc1)OCc1ccccc1` the “% Inhibition” value was -12% and the Z score was 1.35. With `O=C(c1cccnc1)N(Cc1ccccc1)CC1(O)CCCC1` the “% Inhibition” value was -10% and the Z score was 1.14. In the case of `CC(=O)N1CCc2ccc(OCc3nc(C(=O)NCCc4ccccn4)cs3)cc2[C@@H]1c1ccc(F)cc1`, the “% Inhibition” value is reported as -12% and the Z score is reported as 1.47. With `CCOc1ccc(-c2cn(C3CN(c4nccnc4C#N)C3)nn2)cc1` the “% Inhibition” value was 13% and the Z score was -1.7. In the case of `Cn1ncc2nnn(-c3ccccc3)c(=O)c21`, the “% Inhibition” value is reported as 36% and the Z score is reported as -4.88. In the case of `COc1cc(OC)c(NC(=O)Nc2cccc(-c3noc(C4CCC4)n3)c2)cc1Cl`, the “% Inhibition” value is reported as -7% and the Z score is reported as 0.7. With `Cc1nc(-c2ccnc(NCc3cnc(C4CC4)s3)c2)n[nH]1` the “% Inhibition” value was -10% and the Z score was 1.24. With `CC(C)[C@H](CNC(=O)c1cccc[n+]1[O-])Cc1ccccc1` the “% Inhibition” value was -12% and the Z score was 1.53. `CCOc1ncccc1CNC(=NC)NCc1cccs1` was tested, and the “% Inhibition” value was -18% and the Z score was 1.71. `Cc1nn(S(=O)(=O)Cc2ccccc2)c(C)c1Cl` was tested, and the “% Inhibition” value was -2% and the Z score was 0.27. With `CC(C)NC(=O)c1ccc(-c2cncnc2)o1` the “% Inhibition” value was 1% and the Z score was -0.12. With `Cc1ccn(CCn2ccc(-c3cccc(-c4cnccn4)c3)n2)n1` the “% Inhibition” value was -8% and the Z score was 1.5. `CC(C)CN1CC[C@H](CNC(=O)c2ccc(NC3CCC3)nc2)C1` was tested, and the “% Inhibition” value was -7% and the Z score was 0.9. `COc1cccn2cc(CCN3C(=O)c4ccccc4C3=O)nc12` was tested, and the “% Inhibition” value was -4% and the Z score was 0.46. For `C[C@@H]1CCCN1Cc1ccc(-c2cncnc2)cc1Cl`, the “% Inhibition” value was -3% and the Z score was 0.54. In the case of `CC1CCC(Cn2c(N)nc(C#N)c2C#N)O1` (configuration not stated), the “% Inhibition” value is reported as -8% and the Z score is reported as 1.08. With `CC1(C)CO[C@H](c2cccc(Cl)c2)CN1C(=O)CS(C)(=O)=O` the “% Inhibition” value was 0% and the Z score was 0.08. In the case of `COC(=O)N(C)CC(=O)NCc1ccco1`, the “% Inhibition” value is reported as -50% and the Z score is reported as 5.82. In the case of `CN(CC#N)C(=O)[C@@H]1COCC(=O)N1Cc1ccccc1`, the “% Inhibition” value is reported as -3% and the Z score is reported as 0.59. For `COC(=O)[C@H](CC(C)C)OC(=O)CN1CCS(=O)(=O)CC1`, the “% Inhibition” value was 7% and the Z score was -0.89. With `CNC(=O)N1CCC2(C)C(C1)C2(F)F` (configuration not stated) the “% Inhibition” value was -6% and the Z score was 0.91. For `COc1nc2c(cc1CNC(=O)c1ccccc1O)C(=O)N(C1CCCC1)C2`, the “% Inhibition” value was -19% and the Z score was 2.89. For `O=C(N[C@H]1CCCn2ncnc21)c1cccc2c1CCC2`, the “% Inhibition” value was 0% and the Z score was -0.03. For `COC(=O)c1cc(-c2noc([C@@H](C)c3cnn(C)c3)n2)cn1C`, the “% Inhibition” value was -25% and the Z score was 2.63. With `CS(=O)(=O)N1CCN=C1N1CCC(Cc2ccccc2)CC1` the “% Inhibition” value was -1% and the Z score was 0.13. For `Cn1nc2n(c1=O)C[C@@H](c1nc(-c3cccnn3)no1)CC2`, the “% Inhibition” value was -7% and the Z score was 1.2. With `Cc1ccc(CN(c2ccc(C(=O)NC3CC4CCC3C4)cc2)S(C)(=O)=O)cc1` (configuration not stated) the “% Inhibition” value was 1% and the Z score was -0.07. For `CN(C)S(=O)(=O)c1ccc2c(c1)nnn2CCCC(=O)Nc1ccccn1`, the “% Inhibition” value was 4% and the Z score was -0.55. For `CCn1ncnc1[C@H]1CC(=O)Nc2c1c(C(C)(C)C)nn2C`, the “% Inhibition” value was -9% and the Z score was 1.03. With `CCc1ncc(CNC(=O)c2cc(C(F)F)n(C)n2)o1` the “% Inhibition” value was -16% and the Z score was 2.08. With `Cc1nn(-c2ccccc2)c(N2CCC(C(=O)NCc3cccc(F)c3)CC2)c1-n1c(C)ccc1C` the “% Inhibition” value was -13% and the Z score was 1.62. For `CNc1nc(C)nc(O)c1Br`, the “% Inhibition” value was 37% and the Z score was -0.86. `Clc1cccc(-c2[nH]c(-c3c4ccccc4c(Cl)c4ccccc34)nc2-c2ccccc2)c1Cl` was tested, and the “% Inhibition” value was 0% and the Z score was -0.01. `CC(NC1CCCC1CNC(=O)OC(C)(C)C)C1CCOCC1` (configuration not stated) was tested, and the “% Inhibition” value was -16% and the Z score was 1.79. For `COc1cccc(S(=O)(=O)N2CCN(c3cc(C)nc(N4CCOCC4)n3)CC2)c1`, the “% Inhibition” value was -4% and the Z score was 0.48. `CCO[C@H]1CCCN(C(=O)C(=O)Nc2ccn(-c3ccccc3)n2)C1` was tested, and the “% Inhibition” value was -6% and the Z score was 0.72. `Cc1cc(F)ccc1CN1CCCNC(=O)[C@@H]1Cc1ccccc1` was tested, and the “% Inhibition” value was 3% and the Z score was -0.47. For `COC[C@H]1C[C@@H](NC(=O)COc2ccccc2)[C@H](O)[C@@H]1O`, the “% Inhibition” value was -5% and the Z score was 0.69. For `CCCc1nccn1-c1ccc2cc[nH]c(=O)c2c1`, the “% Inhibition” value was -12% and the Z score was 1.65. For `COc1cccc(C2CC(C(=O)N3CCCCC3)N(C)S(=O)(=O)N2)c1` (configuration not stated), the “% Inhibition” value was -3% and the Z score was 0.45. In the case of `CC(C)C1(CNC(=O)[C@H]2CCCN(C3CCN(Cc4cccnc4)CC3)C2)CC1`, the “% Inhibition” value is reported as -7% and the Z score is reported as 0.65. `CCn1nc(C)cc1C(=O)N1CCC(CCC(=O)Nc2ccc3c(c2)OCCO3)CC1` was tested, and the “% Inhibition” value was -16% and the Z score was 1.46. `O=C1NCCCCCN(Cc2c[nH]nc2-c2ccc(F)cc2)[C@H]2CCC[C@@H]12` was tested, and the “% Inhibition” value was -9% and the Z score was 1.22. `O=S(=O)(c1ccc(Cl)cc1)N1CC(F)(F)C[C@H]1CN1CCc2ccccc2C1` was tested, and the “% Inhibition” value was -8% and the Z score was 1.31. With `COCCN1C[C@@H](Cc2cncc3ccccc23)CC1=O` the “% Inhibition” value was 7% and the Z score was -0.91. For `O=C1c2ccccc2C(=O)N1c1ccc2c(c1)OCCO2`, the “% Inhibition” value was -11% and the Z score was 1.35. For `O=C1CN(C(=O)CCC(=O)N2CCc3ccccc3C2)CCN1`, the “% Inhibition” value was -11% and the Z score was 1.31. `CN1CC[C@H](Cc2nc(-c3cnc(OCC(F)F)cn3)no2)C1` was tested, and the “% Inhibition” value was 1% and the Z score was -0.07. With `CC[C@@H](C(=O)NCCc1ccccn1)n1cccn1` the “% Inhibition” value was -3% and the Z score was 0.53. For `CCOc1cc(N2Cc3cn[nH]c3C2)ncn1`, the “% Inhibition” value was -7% and the Z score was 0.78. For `CN1CCN(c2cccc(NC(=O)NCCc3nccs3)c2)C1=O`, the “% Inhibition” value was -14% and the Z score was 1.83. With `Cc1nnc(CNC(=O)C(C)(C)Oc2ccc3c(c2)CCC3)o1` the “% Inhibition” value was -14% and the Z score was 1.53. `CCn1ncc(C(=O)N2CCC[C@@](F)(c3nc(C)no3)C2)c1C` was tested, and the “% Inhibition” value was -8% and the Z score was 1. `O=C(N[C@H]1CC[C@@H](CO)CC1)c1csc(N2CCCCC2)n1` was tested, and the “% Inhibition” value was -7% and the Z score was 1.15. With `O=C1C[C@@H](c2ccc(F)c(F)c2)c2ccc(O)cc2N1` the “% Inhibition” value was 4% and the Z score was -0.51. For `Cc1ccc(-c2ccccc2CN(Cc2cccnc2)C[C@@H]2CCC(=O)N2)o1`, the “% Inhibition” value was 4% and the Z score was -0.63. `Cc1cc(N[C@H](CO)Cc2ccccc2)n2nccc2n1` was tested, and the “% Inhibition” value was -12% and the Z score was 2.3. `CCn1c(=O)c(N2CCN(C(=O)Nc3cccc(C(F)(F)F)c3)CC2)nc2ccccc21` was tested, and the “% Inhibition” value was 31% and the Z score was -0.97. `CCS(=O)(=O)N1CCN(c2nc[nH]n2)CC1` was tested, and the “% Inhibition” value was -4% and the Z score was 0.78. For `CS(=O)(=O)C1CC2CCC(C1)N2S(=O)(=O)c1cccc(-c2ccc(Cl)cc2)c1` (configuration not stated), the “% Inhibition” value was -14% and the Z score was 1.84. For `Cc1cccc(CN2CCN(CC3CCCCC3)[C@@H](CCO)C2)n1`, the “% Inhibition” value was -6% and the Z score was 0.88. In the case of `CCCC[C@H](NC(=O)CNc1ccc(F)cc1)c1cccnc1`, the “% Inhibition” value is reported as -11% and the Z score is reported as 2.02. For `COC(=O)c1cccc2c1OCCN2C(=O)c1csnc1C`, the “% Inhibition” value was -8% and the Z score was 1.26. `CCn1ncnc1CN[C@@H](C)c1nncn1CCOC` was tested, and the “% Inhibition” value was -1% and the Z score was 0.11. For `Cc1n[nH]c2c1[C@H](c1cc(C(C)C)no1)CC(=O)N2`, the “% Inhibition” value was -13% and the Z score was 1.7. For `CCCC1(CCC)NC(=O)N(Cc2nc(N)nc(N(C)C)n2)C1=O`, the “% Inhibition” value was -9% and the Z score was 1.1. With `N#Cc1ccnc(O[C@H]2CCCN(C(=O)COc3cccc(C(F)(F)F)c3)C2)c1` the “% Inhibition” value was -6% and the Z score was 0.97. In the case of `Cc1nc(C(C)(C)NCC#N)sc1C`, the “% Inhibition” value is reported as -9% and the Z score is reported as 0.92. With `CC(C)(C)OC(=O)[C@@H](NCc1ccc(F)cc1)c1ccccc1` the “% Inhibition” value was -19% and the Z score was 2.52. `CS(=O)(=O)N1CCN(c2nc(-c3ccsc3)cs2)CC1` was tested, and the “% Inhibition” value was -10% and the Z score was 1.35. For `O=C(CCC(=O)c1ccc2c(c1)OCCO2)NCc1nnc2ccccn12`, the “% Inhibition” value was -9% and the Z score was 1.01. `O=C(NS(=O)(=O)C1C[C@@H]2CC[C@H]1C2)c1ccnn1CC(F)F` (some centres not stated) was tested, and the “% Inhibition” value was -1% and the Z score was 0.24. `CC(C)(C)OC(=O)Cc1cccc(NCc2c[nH]nc2-c2cccnc2)c1` was tested, and the “% Inhibition” value was -5% and the Z score was 0.54. `O=C(CC(F)(F)C(F)F)c1cccnc1` was tested, and the “% Inhibition” value was -38% and the Z score was 4.41. With `O=C(c1ccc(=O)[nH]c1)N1CCC(COCc2ccccc2)CC1` the “% Inhibition” value was -10% and the Z score was 1.39. For `CN(C)c1ccc(-c2c3c([nH]c(=O)c2C#N)CCCC3)cc1`, the “% Inhibition” value was -15% and the Z score was 1.91. `CC(C)c1nc(N2C3CCC2CC(O)C3)c2cc[nH]c2n1` (configuration not stated) was tested, and the “% Inhibition” value was 0% and the Z score was 0.05. In the case of `Cn1ccc(NC(=O)CNC(=O)c2cccc(OC(F)F)c2)n1`, the “% Inhibition” value is reported as 3% and the Z score is reported as -0.43. In the case of `O=C(NCc1ccco1)/C(=C/c1cn(-c2ccccc2)nc1-c1ccc(F)cc1)NC(=O)c1ccc(Cl)cc1Cl`, the “% Inhibition” value is reported as -15% and the Z score is reported as 1.79. `Cc1cc(CS(=O)(=O)Cc2ccc3c(c2)CCC3)no1` was tested, and the “% Inhibition” value was 5% and the Z score was -0.79. `CCC=C(C)C(=O)NCc1ccccn1` was tested, and the “% Inhibition” value was -1% and the Z score was 0.08. `O=C(CCc1cnccn1)NC[C@@H]1COc2ccccc2C1` was tested, and the “% Inhibition” value was -10% and the Z score was 0.97. In the case of `COc1ccc(-n2c(Cc3nnn[nH]3)n[nH]c2=O)c(C)c1`, the “% Inhibition” value is reported as -5% and the Z score is reported as 0.94.
